# The whole screen tested about 110,000 compounds, of which about 230 (0.21%) showed an effect of 50% or more. The list shows a part of the results.
# Target: DPAP1 (Plasmodium falciparum, UniProt Q8IIJ9)
# Assay: primary screen, percent inhibition; read by cleavage of a fluorogenic dipeptide substrate; higher = more effect of the substance
# Parameters: species or system P. falciparum D10 trophozoite lysates; single well
# 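Note: 30 min substrate incubation versus DMSO and 10 µM JCP410 controls.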
# DPAP1, sequence (Q8IIJ9 whole entry, looked up): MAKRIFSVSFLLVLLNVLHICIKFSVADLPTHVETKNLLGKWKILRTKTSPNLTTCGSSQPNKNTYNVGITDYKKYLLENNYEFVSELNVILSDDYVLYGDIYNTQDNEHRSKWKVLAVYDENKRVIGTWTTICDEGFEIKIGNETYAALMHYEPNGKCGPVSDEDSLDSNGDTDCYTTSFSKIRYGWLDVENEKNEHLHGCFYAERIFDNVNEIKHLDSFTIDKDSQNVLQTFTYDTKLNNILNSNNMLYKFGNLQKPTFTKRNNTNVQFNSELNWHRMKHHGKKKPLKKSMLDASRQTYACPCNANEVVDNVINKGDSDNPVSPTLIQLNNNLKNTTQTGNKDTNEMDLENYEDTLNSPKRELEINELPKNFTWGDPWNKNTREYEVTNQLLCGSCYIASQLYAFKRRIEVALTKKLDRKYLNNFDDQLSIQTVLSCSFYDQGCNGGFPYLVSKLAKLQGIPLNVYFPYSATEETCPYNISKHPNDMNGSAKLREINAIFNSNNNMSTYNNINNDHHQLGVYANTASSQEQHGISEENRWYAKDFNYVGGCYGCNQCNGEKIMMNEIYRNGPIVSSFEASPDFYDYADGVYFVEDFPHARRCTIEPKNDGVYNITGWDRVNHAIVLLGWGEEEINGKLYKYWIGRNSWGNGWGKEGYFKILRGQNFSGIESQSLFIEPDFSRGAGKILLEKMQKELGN
row,SMILES,% Inhibition @ 10 uM [%]
1,CC1CCCC(Nc2ncnc3onc(-c4ccc(F)cc4)c23)C1C (stereo not shown),0.882
2,O=C(OC1c2ccccc2C(=O)N1Cc1ccccc1)c1cccc(Cl)c1 (stereo not shown),0.446
3,Cc1cc(C)c(Cn2cnc3ccccc32)c(C)c1,-0.0235
4,COc1ccc(N2CCN(Cc3cccc(OC)c3)CC2)cc1,4.57
5,CCCCN(CCCC)S(=O)(=O)c1ccc2oc(C(=O)NCc3ccco3)c(C)c2c1,-4.06
6,CCn1c(=O)c(C(=O)Nc2nccs2)c(O)c2ccccc21,2.45
7,CCO/C(O)=C1/C(C)=Nc2nc3ccccc3n2C1c1sccc1C (stereo not shown),0.221
8,CCCc1[nH]nc2c1C(c1ccc(OCC)c(OCC)c1)C(C#N)=C(N)O2 (stereo not shown),1.03
9,CN(C)c1nc(NC(C)(C)C)nc(SCC(=O)Nc2ccccc2)n1,-2.58
10,CC(CCc1ccccc1)NC(=O)Cn1ccc2cc(S(=O)(=O)N3CCCCC3)ccc21 (stereo not shown),0.181
11,CCN(CC)c1ccc(NC(=O)CN2C(=O)c3ccccc3C2=O)cc1,-0.425
12,CSc1ncc(C(=O)NCc2ccc(OC(C)C)cc2)c(-c2ccccc2)n1,-4.45
13,Cc1cnn(-c2cc(C(F)(F)F)nc(-c3ccccc3)n2)c1,-0.636
14,CCOc1ccc(/C=C2\SC(Nc3ccccc3)=NC2=O)cc1OC,1.34
15,CC1(C(=O)O)CCC(C(=O)Nc2ccc3ccccc3c2)C1(C)C (stereo not shown),5
16,CCOC(=O)c1c(C)c(C(=O)NC(C)CC)c(C)n1C (stereo not shown),0.0579
17,COc1cccc2c1cc1c(=O)n(CC(=O)NCc3ccccn3)nc(C)n12,3.29
18,N#C/C(=C\c1c(Oc2ccccc2Cl)nc2ccccn2c1=O)C(=O)N1CCCCC1,-4
19,O=C(CSCc1ccc(Cl)cc1Cl)Nc1cnc(O)nc1O,12.2
20,COc1ccccc1OCc1ccc(C(=O)N2N=C(C(F)F)CC2(O)C(F)F)o1 (stereo not shown),-2.54
21,O=C1c2ccccc2C(=O)N1CCN1CCc2ccccc21,-2.07
22,O=C(NCCN1CCC(Cc2ccccc2)CC1)c1cc(-c2cccnc2)nc2ccccc12,3.24
23,CN(Cc1ccco1)S(=O)(=O)c1nnc(NC(=O)c2ccc(C(C)(C)C)cc2)s1,4.19
24,CCC(C)NC(=O)CN(C1CCCCC1)S(C)(=O)=O (stereo not shown),-2.32
25,CC1CCN(c2nc3c(c(=O)n(C)c(=O)n3C)n2Cc2cccc(C(F)(F)F)c2)CC1,3.35

row,SMILES,% Inhibition @ 10 uM [%]
1,CCOC(=O)c1c(N)n(-c2cccc(O)c2)c2nc3ccccc3nc12,-2.7
2,COc1ccccc1-c1nnc2sc(CCc3ccccc3)nn12,4.47
3,CCOC(=O)C1=CN(C(C)C)C=C(C(=O)OCC)C1c1cc(OC)c(OC)cc1OC,0.219
4,Nc1nc2ccccc2n1C(=O)CCc1ccccc1,5.65
5,NS(=O)(=O)c1ccc(CCNC(=O)CN2C(=O)C3C4C=CC(CC4)C3C2=O)cc1 (stereo not shown),2.8
6,COc1ccc(-c2cc3c(=O)n(CC(=O)NCc4cc(Br)ccc4OC)ncn3n2)cc1,0.623
7,Cc1cc(Cl)ccc1OCC(=O)Nc1ccc(N(C)C)cc1,-3.37
8,Cc1ccc(-c2nc(CS(=O)(=O)CC(=O)NCC(C)c3ccccc3)c(C)o2)cc1 (stereo not shown),-1.89
9,CC(C)=CCCC(C)CN1CCN(c2ccc(F)cc2)CC1 (stereo not shown),1.7
10,O=C(CN(CCc1ccccc1)S(=O)(=O)c1ccc(Cl)cc1)Nc1ccc2c(c1)OCO2,-5.9
11,COc1ccc(OC)c(C2C(C#N)=C(N)Oc3cc(N)ccc32)c1 (stereo not shown),3.01
12,COc1ccc(-c2onc(C)c2C)cc1S(=O)(=O)N(Cc1cccs1)C1CCCC1,2.58
13,CC1=C(C(=O)Nc2ccccc2)C(c2ccco2)C(C#N)=C(SCc2ccc(Cl)cc2)N1 (stereo not shown),3.01
14,FC(F)(F)c1ccccc1CN1CCN(c2ncccn2)CC1,-4.61
15,C#CCN1C(=O)C(O)(CC(=O)c2ccc(C)cc2C)c2ccccc21 (stereo not shown),3.74
16,COc1ccc(C(=O)NCC(=O)NC2=NCCS2)cc1,0.487
17,CCc1nn(CC(=O)N2CCCC2)c(=O)c2cccn12,-2.78
18,COc1ccc(/C=C(/NC(=O)c2ccccc2Br)C(=O)NCC(=O)O)c(OC)c1,22.9
19,CCN1CCc2nc3sc4c(=O)[nH]c(=O)[nH]c4c3cc2C1,-4.14
20,COc1ccc(-c2noc(CC(=O)Nc3cc(C)on3)n2)cc1,3.28
21,Cc1ccc(C(=O)Nc2sc3c(c2C#N)CCCC3)cc1,-1.64
22,COc1ccc(C(=O)Nc2cccc(Br)c2)cc1,-1.56
23,CCn1c2ccccc2c2cc(C3C(C#N)=C(N)OC4=C3C(=O)CCC4)ccc21 (stereo not shown),15.8
24,CCc1nc2nc(C)cc(NCc3ccc(F)cc3)n2n1,0.974
25,Cc1ccc(NC(=O)c2ccccc2C(=O)O)cc1Br,2.86

row,SMILES,% Inhibition @ 10 uM [%]
1,COC(=O)c1ccc2nc(Nc3nc4ccc(OC)cc4s3)sc2c1,8.34
2,O=C(NC1CCCCC1)N1CCN(c2ccccc2F)CC1,-5.49
3,CC1(C)CC(=O)C2=C(C1)OC(N)=C(C#N)C2c1ccc(-c2ccccc2)o1 (stereo not shown),-0.969
4,CC1(C)CC(=O)c2cnc(NC(=O)C3CCCCC3)nc2C1,-1.05
5,OCCNCc1cccc(OCc2ccc(F)cc2)c1,0.315
6,COc1cccc(-c2nc(-c3ccc(Cl)cc3)no2)c1,-4
7,COc1cc(C)c(CN2CCN(c3ccccc3F)CC2)cc1C,-5.81
8,CC(C)C[C@H](NC(=O)c1cc2c(-c3ccccc3)nn(C)c2s1)C(=O)NCC#N,2.87
9,CCOc1ccc(NC2=NC(=O)CC(C(=O)Nc3ccc(F)cc3)N2)cc1 (stereo not shown),-1.55
10,COc1ccc(-c2cc(C(=O)N3CCOCC3)c3ccccc3n2)cc1,0.245
11,Oc1ccccc1-c1nc(/C=C/c2ccc(Cl)cc2)no1,1.72
12,O=C(O)c1ccc(NC(=O)c2ccc(N3C(=O)c4ccccc4C3=O)cc2)cc1,0.317
13,CCOCCCNC(=O)CNC(=S)N(Cc1ccccc1F)C1CCCCC1,2.9
14,COc1ccc(CO/C(O)=C2\C(C)=NC3=C(C(=O)CCC3)C2c2cccc(OC)c2OC)cc1 (stereo not shown),-3.69
15,CCOc1ccccc1N1CCN(Cc2ccc(Cl)cc2Cl)CC1,-2.08
16,O=C(Cn1ncc2ccccc21)N1CCc2ccccc2C1,-3.47
17,O=c1c2cccnc2n(Cc2ccc(Cl)cc2)c(=O)n1Cc1ccco1,-1.66
18,COc1ccc(CN2CCN(Cc3ccccc3F)CC2)c(OC)c1OC,-6.27
19,Cc1ccc(C)c(NC(=O)c2ccccc2Br)c1,2.46
20,COC(=O)c1ccc(CS(=O)(=O)c2ccccc2)o1,0.111
21,O=C(Nc1nc(-c2ccc(Cl)cc2)cs1)N1CCOCC1,-3.48
22,CCOc1ccc(CC(=O)Nc2sc3c(c2C#N)CCC3)cc1OCC,1.82
23,CC(C)n1c(NCc2cccs2)nc2ccccc21,-3.5
24,O=C(Cn1nc(Cc2cccnc2)c2ccccc2c1=O)NCCCN1CCCC1=O,-4.92
25,CCc1ccc(CNC(=O)CCCn2c(=O)c3cccn3c3cccnc32)cc1,1.63

row,SMILES,% Inhibition @ 10 uM [%]
1,CC(C)CN(CCNC(=O)Cn1ncc2c3ccccc3n(C)c2c1=O)CC(C)C,-3.35
2,O=C(O)c1nn2c(C(F)(F)F)cc(-c3ccco3)nc2c1Cl,5.31
3,OCC1CCCCN1Cc1cccc(Cl)c1Cl (stereo not shown),-2.36
4,O=C(NC1CCCN(C(=O)OCc2ccccc2)CC1=O)C(CC(=O)N1CCOCC1)CS(=O)(=O)Cc1ccccc1 (stereo not shown),1.35
5,Cc1ccc(NC(=O)CCc2nnc3ccc(N4CCC(C)CC4)nn23)nc1,-1.39
6,CCOC(=O)C1=C(O)/C(=C\c2ccc(Cl)cc2)N=C1C,3.76
7,CCOC(=O)c1sc2nc(C)cc(COC)c2c1NC(=O)CN1CCCCC1,-2.63
8,O=S(=O)(c1ccc(-n2cccn2)cc1)N1CCN(C2CCCCC2)CC1,-0.0621
9,CCOC(=O)c1cc2c(-c3cccc(OC)c3)nn(C)c2s1,7.39
10,CCn1c(C(=O)N2CCC(C(=O)NC(C)c3ccccc3)CC2)cc2sccc21 (stereo not shown),1.77
11,COc1cccc(Cn2cccc2C2=NC(CC(C)C)CO2)c1OC (stereo not shown),0.163
12,COc1ccc(NC(=O)C(=O)NC2CCCC2)cc1,3.15
13,COc1ccccc1CNS(=O)(=O)c1cc(-c2onc(C)c2C)ccc1C,-6.66
14,COc1ccccc1/C=C/CN1CCN(CCOCCO)CC1,-0.0494
15,CN(C)c1ccc(NC(=O)Cn2nc(C(F)(F)F)cc2C2CC2)cc1,-5.06
16,CC(=O)C1=C(O)C(=O)N(C)C1c1ccc(Cl)cc1 (stereo not shown),5.8
17,Cc1ccc2oc(=O)c3cc(C(=O)Nc4ccc(Cl)cn4)sc3c2c1,-2.45
18,O=c1/c(=C\c2ccc(F)cc2)sc2nc3cc(Br)cnc3n12,1.67
19,Cc1ccc(-n2c(SCC(=O)c3ccccc3)nc3nncc-3c2O)cc1Cl,14.6
20,Cc1c(CNCCc2ccccc2Cl)c(C(=O)O)c(C)n1Cc1ccccc1F,-1.92
21,O=C(C(F)F)N1CCN(c2ccccc2)CC1,-2.42
22,CC(=O)NS(=O)(=O)c1ccc(NS(=O)(=O)c2ccccc2[N+](=O)[O-])cc1,-0.239
23,CC1(C)CC(=O)c2cc(OCC(=O)NCCC3=CCCCC3)ccc2O1,-1.96
24,COc1ccc2nc(-n3nc(C)cc3C)c(-n3nc(C)cc3C)nc2c1,15.3
25,O=c1c(-c2ccccc2)coc2cc(OCc3ccccc3)ccc12,-1.68
